# Test results from PubChem BioAssay AID504332 (National Center for Advancing Translational Sciences (NCATS), 2011).
# The campaign covered roughly 350,000 compounds. About 31,000 (8.9%) were called active. Inconclusive means that the source gave no clear call. Such entries were picked first, then a sample of the others. The call rests on the fitted dose curve; in most records, active means well fitted inhibition curve with a large enough effect; inconclusive means small, poorly fitted or top-dose-only effect; inactive means no such curve, though single readings can be large or run the other way. Where the call is inconclusive, the potency comes from a doubtful curve fit.
# Target: Histone-lysine N-methyltransferase EHMT2 (Homo sapiens) (UniProt Q96KQ7)
# UniProt Q96KQ7, sequence (Q96KQ7 whole entry, looked up): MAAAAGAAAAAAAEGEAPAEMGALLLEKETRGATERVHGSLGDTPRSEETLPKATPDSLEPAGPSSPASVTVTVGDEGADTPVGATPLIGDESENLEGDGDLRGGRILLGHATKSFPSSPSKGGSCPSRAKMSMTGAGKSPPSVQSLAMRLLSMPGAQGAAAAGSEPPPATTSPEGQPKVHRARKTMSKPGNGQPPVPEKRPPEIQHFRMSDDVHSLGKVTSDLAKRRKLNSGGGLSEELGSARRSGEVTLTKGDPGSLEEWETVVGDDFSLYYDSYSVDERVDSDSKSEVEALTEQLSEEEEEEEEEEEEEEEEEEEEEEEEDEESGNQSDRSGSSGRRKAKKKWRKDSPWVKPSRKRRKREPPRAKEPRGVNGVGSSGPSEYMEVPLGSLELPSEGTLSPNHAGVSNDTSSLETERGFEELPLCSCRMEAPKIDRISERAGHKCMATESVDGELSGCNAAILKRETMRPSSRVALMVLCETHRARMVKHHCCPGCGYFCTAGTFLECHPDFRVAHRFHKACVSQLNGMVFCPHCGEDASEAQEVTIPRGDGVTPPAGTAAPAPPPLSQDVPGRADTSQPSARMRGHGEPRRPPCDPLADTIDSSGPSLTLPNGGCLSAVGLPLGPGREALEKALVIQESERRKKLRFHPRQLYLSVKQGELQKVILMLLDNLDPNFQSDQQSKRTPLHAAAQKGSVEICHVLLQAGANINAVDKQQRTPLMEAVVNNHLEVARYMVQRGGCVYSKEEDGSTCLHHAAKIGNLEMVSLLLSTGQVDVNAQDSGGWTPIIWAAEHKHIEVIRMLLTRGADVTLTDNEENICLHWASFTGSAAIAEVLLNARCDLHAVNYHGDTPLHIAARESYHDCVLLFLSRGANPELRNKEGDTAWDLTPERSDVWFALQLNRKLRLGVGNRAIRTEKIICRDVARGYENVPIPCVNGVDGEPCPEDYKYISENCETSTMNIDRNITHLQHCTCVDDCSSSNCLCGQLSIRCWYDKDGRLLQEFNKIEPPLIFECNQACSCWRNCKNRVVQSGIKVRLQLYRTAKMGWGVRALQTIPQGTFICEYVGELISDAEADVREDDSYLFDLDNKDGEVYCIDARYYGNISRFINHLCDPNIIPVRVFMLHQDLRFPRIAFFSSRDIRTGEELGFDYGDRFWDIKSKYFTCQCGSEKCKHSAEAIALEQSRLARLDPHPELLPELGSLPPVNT
# Experiment: qHTS Assay for Inhibitors of Histone Lysine Methyltransferase G9a; further: nearly all actives have a fitted effect of over 75% in size
# Details: G9a H3K9 monomethylation, AlphaScreen, 2 h; activity, negative = inhibition: at 59 µM (top of the series) unless noted
# Procedure, shortened: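 G9a (20 nM) was preincubated 15 min with compound, then reacted 2 h at room temperature with 500 nM biotin-H3K9 peptide and 20 µM SAM. Monomethyl-H3K9 detected by AlphaScreen using anti-H3K9me1 antibody.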
# On the % scale 0 is the no-effect control and ±100 the full control effect; potency means the concentration at half of the fitted maximal effect; tags describe the fitted curve by direction and shape.
Structure (SMILES),Potency,"activity, negative = inhibition"
O=C(O)CC/C(=C\c1ccc(N2CCCC2)c([N+](=O)[O-])c1)c1nc2ccccc2s1,active: 12.6 µM,
COc1ccc(CNCCC(c2ccccc2)c2ccc3c(c2)OCO3)cc1 (stereo unspecified),active: 20 µM,
CCOc1ccc(-c2nc(SCC(=O)NC3CCCC3)c(-c3ccccc3)[nH]2)cc1OC,"inconclusive: 20 µM [inhibitor, partial curve, poor fit]",
CCOc1ccc(NC(=O)/C=C\C(=O)N(c2ccc(C(C)C)cc2)C(C(=O)NCc2ccco2)c2ccc(F)cc2)cc1 (stereo unspecified),"inconclusive: 22.4 µM [inhibitor, single point]",
COc1cccc(-c2nc(SCC(=O)NC3CCCC3)c(-c3ccccc3)[nH]2)c1,,inactive: -33.6%
COC(=O)CN(C(=S)Nc1ccc(F)cc1)C1CC(=O)N(c2ccc(OC)cc2)C1=O (stereo unspecified),active: 39.8 µM,
CCOC(=O)C1=C(C)OC2(O)c3ccccc3C(=O)C12O (stereo unspecified),"inconclusive: 100 µM [inhibitor, partial curve, poor fit]",
O=[N+]([O-])c1ccc(CN2CCOCCOCCOCC2)cc1,"inconclusive: 1 µM [inhibitor, full curve, poor fit]",
O=C(O)c1cc(C(=O)O)cc(N2C(=O)CSC2=S)c1,active: 17.8 µM,
Cc1cc(Nc2ccccc2)c2c([N+](=O)[O-])c(C)cc(C)c2n1,active: 22.4 µM,
O=C(NC(=S)NC1CCS(=O)(=O)C1)c1ccccc1 (stereo unspecified),,inactive: 7.2% [at 102 µM]
CC1CN(S(=O)(=O)c2cccc(C(F)(F)F)c2)C(C)N1C(=O)N1CCOCC1 (stereo unspecified),,inactive: 0.252%
CCOc1ccc(CCNC(=O)CCc2c(C)nc3cc(-c4ccccc4OC)nn3c2C)cc1,"inconclusive: 12.6 µM [inhibitor, partial curve, poor fit]",
O=C(O)CCn1nnc(-c2ccccc2)n1,,inactive: -37.5% [at 102 µM]
COc1ccccc1N1CCN(CC(O)COc2c(OC)cccc2OC)CC1 (stereo unspecified),active: 14.1 µM,
Cn1ncc([N+](=O)[O-])c1C(=O)Nc1cccc(Cl)c1,,inactive: 11.8% [at 0.501 µM]
CCc1nnc(NC(=O)CSc2ccc(Cl)cc2)s1,,inactive: 3.76% [at 102 µM]
CCOc1ccc(-c2nc(N)nc(C)c2-c2ccc(Cl)cc2)c(O)c1,"inconclusive: 70.8 µM [inhibitor, partial curve]",
Cc1cc(C)cc(N=C2NC(=O)/C(=C/c3cccs3)S2)c1,"inconclusive: 39.8 µM [inhibitor, single point]",
COC(=O)CCCC1=CC2=C(c3ccccc3)C(=O)C(C)(OC(=O)C3CCCC3)C(=O)C2=CN1Cc1ccc(OC)cc1 (stereo unspecified),"inconclusive: 8.91 µM [inhibitor, single point]",
CC(=O)c1c(C)[nH]c(C(=O)OCC(=O)Nc2sc3c(c2C#N)CCCC3)c1C,"inconclusive: 7.08 µM [inhibitor, partial curve]",
CCn1cc(Cl)c(C(=O)NNC(=O)CCn2ccc([N+](=O)[O-])n2)n1,"inconclusive: 7.94 µM [inhibitor, full curve, poor fit]",
COc1cc(C(=O)N2CCc3c([nH]c4ccccc34)C2c2ccc(C)cc2)cc(OC)c1OC (stereo unspecified),"inconclusive: 14.1 µM [inhibitor, partial curve]",
O=C(c1cccc(F)c1)N1CCC[C@@]2(CCN(c3ccncc3)C2)C1,,inactive: 1.1% [at 12.7 µM]

Structure (SMILES),Potency,"activity, negative = inhibition"
CC(C)N1CCc2c(sc(NC(=O)c3ccc(S(=O)(=O)N4CCc5ccccc54)cc3)c2C(N)=O)C1,active: 17.8 µM,
Cc1cc(=O)oc2c3c4c(cc12)OCCN4CCC3,"inconclusive: 25.1 µM [inhibitor, single point]",
Cn1c2ccccc2c2nnc(SCC(=O)Nc3cccc(O)c3)nc21,active: 70.8 µM,
Cc1ccc(S(=O)(=O)Nc2ccc3c(c2)OCCO3)cc1,,inactive: -2.77% [at 102 µM]
CC(Sc1cn(CCNC(=O)c2ccccc2F)c2ccccc12)c1ccccc1 (stereo unspecified),,inactive: 24%
O=C(Nc1ccc(Nc2ccccc2)cc1)Nc1ccccc1Cl,active: 7.94 µM,
CC(Oc1ccc(F)cc1)C(=O)Nc1ccc(N2CCOCC2)cc1N1CCOCC1 (stereo unspecified),active: 56.2 µM,
COC(=O)c1c(C)[nH]c(C(=O)C(C)OC(=O)c2c(C)noc2C)c1C (stereo unspecified),"inconclusive: 0.158 µM [inhibitor, full curve, poor fit]",
CCN(CCCNC(=O)CSc1cc(=O)n(CC)c2ccccc12)c1cccc(C)c1,"inconclusive: 22.4 µM [inhibitor, partial curve, poor fit]",
Cc1cc(O)c(/C=N/Nc2cccc(Cl)c2)c(=O)o1,active: 2.24 µM,
Cn1c(C(=O)O)cnc1Sc1ncc(C(F)(F)F)cc1Cl,"inconclusive: 89.1 µM [inhibitor, single point]",
COc1cccc(-n2c(C)c3c(OC)cccc(=O)c3c2C)c1,"inconclusive: 50.1 µM [inhibitor, partial curve]",
CS(=O)(=O)c1ccc2sc(NC(=O)c3cc4ccccc4o3)nc2c1,active: 39.8 µM,
CC(NCc1ccc(S(N)(=O)=O)cc1)C(=O)Nc1cc([N+](=O)[O-])ccc1Cl (stereo unspecified),"inconclusive: 79.4 µM [inhibitor, single point]",
COc1ccc(OC)c(S(=O)(=O)N2c3ccccc3CC2C)c1 (stereo unspecified),"inconclusive: 89.1 µM [inhibitor, single point]",
CCC(C(=O)Nc1ccccc1OC)n1nc(C)c2sc3ccccc3c2c1=O (stereo unspecified),"inconclusive: 39.8 µM [inhibitor, partial curve, poor fit]",
O=C(COC(=O)C12CC3CC(CC(O)(C3)C1)C2)Nc1cccc(Br)c1,"inconclusive: 89.1 µM [inhibitor, partial curve, poor fit]",
COCCOc1ccc(C(F)(F)F)cc1NC(=O)Cc1ccc(S(=O)(=O)N2CCOCC2)s1,,inactive: -4.38% [at 0.501 µM]
CC(=O)N1CCN(C(=O)c2ccc(NS(=O)(=O)c3ccc4c(c3)OCCO4)cc2)CC1,,inactive: -42.1% [at 102 µM]
Cc1ccc(NC(=O)c2ccc3nc[nH]c3c2)cc1C,"inconclusive: 22.4 µM [inhibitor, single point]",
Cc1cc(Nc2ccccc2)n(-c2ccc(C(=O)O)cc2)n1,"inconclusive: 79.4 µM [inhibitor, partial curve, poor fit]",
Cc1ccc(NC(=O)CCC(=O)N2CCSc3ccccc32)cc1Cl,,inactive: 6.27%
CC1CCN(CCCCOc2ccccc2[N+](=O)[O-])CC1,"inconclusive: 7.08 µM [inhibitor, single point]",
N#C/C(=C\c1cccc([N+](=O)[O-])c1)C(=O)NCc1ccc(Cl)cc1,active: 50.1 µM,

Structure (SMILES),Potency,"activity, negative = inhibition"
COc1cc(OC)c(OC)cc1/C=N/NC(=S)NCCN1CCOCC1,,inactive: -23.2% [at 102 µM]
Cn1cccc1CC(=O)NNC(=S)Nc1ccc(F)cc1,"inconclusive: 8.91 µM [inhibitor, full curve]",
O=C(COc1cc([N+](=O)[O-])cc2cccnc12)NCCC1=CCCCC1,"inconclusive: 79.4 µM [inhibitor, single point]",
O=C(CCCCCC(=O)N(CCO)CCO)N(CCO)CCO,active: 39.8 µM,
CCc1nc2c(sc3nc(N4CCOCC4)c4c(c32)CC(C)(C)OC4)c(=O)o1,"inconclusive: 35.5 µM [inhibitor, single point]",
COC(=O)c1cc(OC)c(OC)cc1NC(=O)CN1CCOCC1,"inconclusive: 22.4 µM [inhibitor, single point]",
CCCN(CCC)S(=O)(=O)c1ccc(C(=O)Nc2nnc(COC)o2)cc1,,inactive: 26% [at 102 µM]
CCCCCCCCC(=O)N/N=C/c1ccccn1,,inactive: 3.69% [at 102 µM]
COc1ccccc1OCC(=O)Nc1ccccc1C(=O)NCc1ccco1,,inactive: 0.0121%
O=C(CN1C(=O)/C(=C/c2ccccc2)SC1=S)Nc1cccnc1,,inactive: 11% [at 102 µM]
Cc1ccc(OC(=O)c2cccc(C(=O)Oc3ccc(C)cn3)n2)nc1,"inconclusive: 2.24 µM [inhibitor, partial curve, poor fit]",
CC12CN3CC(C)(CN(C1)C3c1ccc3ccccc3c1O)C2=O (stereo unspecified),active: 1.58 µM,
O=C(NCc1ccc(F)cc1)c1c2c(nc3ccccc13)CCN(Cc1ccccc1)C2,active: 44.7 µM,
CCNC(=O)NS(=O)(=O)c1cnccc1Nc1cccc(Cl)c1,"inconclusive: 89.1 µM [inhibitor, single point]",
CC1Sc2ccc(S(=O)(=O)CCC(=O)Nc3ccccc3Cl)cc2NC1=O (stereo unspecified),,inactive: 12.9% [at 102 µM]
O=C(Cc1cc(=O)oc2cc(O)ccc12)NC(Cc1ccc(Cl)cc1)C(=O)O (stereo unspecified),,inactive: -4.33% [at 102 µM]
COc1ccc(C2=NN(CN3C(=O)C(=O)c4ccccc43)C(c3cccc([N+](=O)[O-])c3)C2)cc1 (stereo unspecified),"inconclusive: 50.1 µM [inhibitor, partial curve, poor fit]",
Cc1cc(Cl)ccc1C(=O)C1CCCN(C(=O)/C=C/c2cnn(C)c2)C1 (stereo unspecified),"inconclusive: 79.4 µM [inhibitor, partial curve, poor fit]",
Cc1onc(-c2ccccc2)c1C(=O)Nc1cccnc1,"inconclusive: 1.58 µM [inhibitor, single point]",
O=C1C2C3C=CC(C4CC34)C2C(=O)N1/N=C/c1ccc(-c2cccc([N+](=O)[O-])c2)o1 (stereo unspecified),"inconclusive: 2 µM [inhibitor, partial curve, poor fit]",
N#Cc1ccc(C23CC4(C2)[C@H](CN(Cc2ccc(C(F)(F)F)cc2)[C@@H]4c2ccccc2)C3c2ccccc2)cc1 (stereo partly specified),"inconclusive: 28.2 µM [inhibitor, single point]",
NCCCC(=O)N1c2ccccc2Sc2ccccc21,"inconclusive: 100 µM [inhibitor, single point]",
Cc1cccc(NC(c2ccc(O)cc2)c2ccc3ccc(C)nc3c2O)n1 (stereo unspecified),active: 4.47 µM,
